Source: PubChem BioAssay AID1508623 (National Center for Advancing Translational Sciences (NCATS), 2021)
Hit rate of the full screen: of about 48,000 compounds, about 450 (0.94%) were called active. About 19% were inconclusive and are not listed. Calls come from the whole dose curve; as a rule, active = well fitted inhibition curve with a large enough effect; inconclusive = small, poorly fitted or top-dose-only effect; inactive = no such curve, though single readings can be large or run the other way. Some of the results follow.

experiment: Primary qHTS for Identification of Small Molecule Inhibitors of Huntingtin Promoter Activity; conditions: HEK293 HTT promoter firefly luciferase reporter (activity 0% = vehicle and -100% = no light), 24 h; series mostly up to 57.5 µM; activity change, negative = inhibition: at the top concentration; note: nearly all actives have a fitted effect of over 50% in size
Method in brief: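 Firefly luciferase readout (Dual-Glo, 10 min RT) after 24 h, 37 °C compound exposure (final up to 57.5 uM) of HEK293 reporter cells cultured 24 h beforehand; PTC124 at 50 uM final as control inhibitor; activity scaled vehicle 0%, zero RLU -100%.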

Activity change, negative = inhibition, inactive:
Cc1cc(C(=O)NCc2ccccc2C)c2c(C)nn(-c3cccc(F)c3)c2n1 -18.9%
CCOC(=O)C1=C(CN2CCN(CC)CC2)NC(=O)NC1c1ccc(Cl)cc1 (centres undefined) 3.76%
CCCn1c(=O)sc2cc(NC(=O)c3ccccc3OCC)ccc21 -6.16%
CC[C@H]1OC(=O)[C@H](C)[C@@H](O[C@H]2C[C@@](C)(OC)[C@@H](O)[C@H](C)O2)[C@H](C)[C@@H](O[C@@H]2O[C@H](C)C[C@H](N(C)C)[C@@H]2O)[C@](C)(OC)C[C@@H](C)C(=O)[C@H](C)[C@@H](O)[C@]1(C)O -14.3%
O=C(CC1N=C2c3ccccc3N=C(SCc3ccc(F)cc3)N2C1=O)NCc1cccs1 (centres undefined) -14%
CCn1c(SCC(=O)c2ccc([N+](=O)[O-])cc2)nnc1-c1ccc(Cl)cc1 -7.38%
CCc1ccc(NC(=O)Cn2ncc3c4ccccc4n(C)c3c2=O)cc1 0%
CCCCn1cc(S(=O)(=O)c2ccc(OC)cc2)c(=O)c2cc(F)c(F)cc21 -27.5%
Clc1cccc(-c2csc(-c3nc(-c4ccc(Br)s4)cs3)n2)c1 -3.67%
CCN(CC)C(=O)c1sc2c(c1C)c(=O)n(-c1ccccc1)c(=O)n2Cc1cc(=O)n2ccccc2n1 -3.07%
COC(=O)Cn1c(CN2CCN(c3ccc(OC)cc3)CC2)nc2c1c(=O)[nH]c(=O)n2C -6.89%
CCOC(=O)c1c(S(=O)(=O)NCC(=O)Nc2cccc(CC)c2)c(C)n(C)c1C -5.3%
CCn1nc(C)c(CCN(C)C(=O)Nc2cc(C)cc(C)c2)c1C -1.27%
O=C(Nc1cnc(N2CCC(N3CCCCC3)CC2)c(C(=O)O)c1)c1ccc(Br)cc1 -13.2%
Cc1ccc(CSc2nc3ccc(NC(=O)COc4ccc(F)cc4)cc3s2)cc1 -3.48%
COc1ccc(-n2c(=O)c3c(c4cc(OC)ccc4n3C)n(Cc3ccc(F)cc3Cl)c2=O)cc1 -24.7%
Nc1nonc1C(=O)NCCNCc1ccc(Cl)c(Cl)c1 -4.14%
COc1ccccc1NC(=O)Cn1c(=O)n(Cc2ccccc2)c(=O)c2c3c(sc21)CN(C(C)=O)CC3 -0.728%
CCn1ccc2c(OCC(=O)NCc3ccc(C)cc3)cccc2c1=O -1.56%
Cc1cc(C)nc(-n2nc(C)c3c2NC(=O)CC3c2cc(F)ccc2F)n1 (centres undefined) -14.8%
Cn1c(=O)cc(SCC(=O)N2CCN(c3ccccc3F)CC2)c2cc(Cl)ccc21 -5.19%
CC(C)Sc1ncc(Cl)c(C(=O)Nc2ccc(S(=O)(=O)Nc3ncccn3)cc2)n1 -25.6%
Cc1ccc(NC(=O)c2cc3c([nH]c2=O)CC(C)(C)CC3=O)c(C)c1 76.7%
CC(C)c1ccc2c(c1)-c1ccccc1S(=O)(=O)N2CC(=O)N1CCCCC1 28%
